{
  "source": "paper PMC12136788",
  "binders": {"B1": {"name": "chr11:102767452:102767453:-_ENSMUSG00000051378_ENSMUST00000021311|mus_mus|FALSE|FALSE (ssRNA)", "RNA": "GGGAGUUCUACAGUCCGACGAUCGGUGAGGAAGGCAGGCUAGGGACUCUUGGCAUUGGCAGCUGUAGACAAGAGAAGGCUAUUGGCGAAUCAGAACAAUCGUGGAUGCCAGGAGUCCCUCGUGGUCAGAACACCCAGUUAAUACAACAGAGGAUUGAGCAUCA"}, "B2": {"name": "chr6:30681072:30681073:-_ENSG00000137337_ENST00000376406|hu_hu|FALSE|FALSE (ssRNA)", "RNA": "GGGAGUUCUACAGUCCGACGAUCGGAGGCCUCCUCUGUGGCUGGUUGCUGACCUUCUUCCACAUCUGUGUCACUGUUCAAAUUGAAGGCAAAAGGCGGCCCAAGGCCGCCCAGGACCGGGGAAUGCCCCUCUUCAUCACUCUCCAACAGAGGAUUGAGCAUCA"}, "B3": {"name": "chr12:73642893:73642894:+_ENSMUSG00000034501_ENSMUST00000044352|mus_hu|FALSE|FALSE (ssRNA)", "RNA": "GGGAGUUCUACAGUCCGACGAUCGAAGAAUAGUAGAGCAGUGCCUCCUGUACUGCCAUACAGCAAGGUUAUUCUAUUUGGGAGCAGAUACCAUGUUCCAAGACCACACGCUAAUCCAGCAAGAAUAGAAUGAAAAACUGUAUUCAACAGAGGAUUGAGCAUCA"}, "B4": {"name": "chrX:70926549:70926550:+_ENSMUSG00000019558_ENSMUST00000114465|mus_mus|FALSE|FALSE (ssRNA)", "RNA": "GGGAGUUCUACAGUCCGACGAUCCAGGCAGACCCCCAAACUGUCAAGGAAAGGCAAGCCCCCGGAGGGAUGAGUGGGGGCUAAAGUUGGGGCUGCUAUGGCUACCAAAGGAUGAGCUGGUGAUGUGAGCUGGGGGUGCCUGUUCAACAGAGGAUUGAGCAUCA"}, "B5": {"name": "chr4:110441554:110441555:+_ENSG00000138802_ENST00000265175|hu_hu|motif|central (ssRNA)", "RNA": "GGGAGUUCUACAGUCCGACGAUCUGAUAAUCCUUCUUGUAAAUUGUAGAAAUGAAUAGUGCUAUCAAAGGUCAUGAAUCCGGUUCUUGUUCGUGAAUCUCCAGGAAGCUUGUCUAGAUUUUCUAGGAGUGACUGGCACAAAAUCAACAGAGGAUUGAGCAUCA"}, "B6": {"name": "chr14:70237991:70237992:+_ENSG00000100650_ENST00000557154|hu_hu|FALSE|FALSE (ssRNA)", "RNA": "GGGAGUUCUACAGUCCGACGAUCCCUGCUUCUUGACCGGCUGUAAGAUUUGCGACUACGGGAACGGGAUCGGCUACGAGACCUAGAGGAACUUCUGGUCCGGGAUCGAGACCUGCUUCUUGACCUACUGUGCCUUUUGCUGCCCAACAGAGGAUUGAGCAUCA"}, "B7": {"name": "chr1:187239687:187239688:+_ENSMUSG00000026615_ENSMUST00000046514|mus_mus|FALSE|FALSE (ssRNA)", "RNA": "GGGAGUUCUACAGUCCGACGAUCCCAGGAGCACUGGUAUGCAAACUGCUUUUCUCCUGGUGUCUUGGGAUCUUCAAAAACUAUUUCACACAUUUUGGAGAAAUUCUGGCCUAAAUGGUGUGAUGUUGCUCCCUGAAUGGCGCGCAACAGAGGAUUGAGCAUCA"}, "B8": {"name": "124644708_124644828_621_CDS_ENSG00000120458_ENST00000374979|human|control|control (ssRNA)", "RNA": "GGGAGUUCUACAGUCCGACGAUCCAGCUCCUGGUACAAGCCACUACUGUUAAUAAGUACAGGCUGGCAGGGCUGAGCAUCCCAUCCUCCCUGACCAAACACCUGUUCCAACUGUUCAAAUGUGUAACUGCUCUUUCUUUUCCCCAACAGAGGAUUGAGCAUCA"}, "B9": {"name": "chr11:111487033:111487034:+_ENSG00000170145_ENST00000304987|hu_hu|FALSE|FALSE (ssRNA)", "RNA": "GGGAGUUCUACAGUCCGACGAUCCAUUACCUGAUAAAGUUUGAUUAUGUGAGGGUGGUCUAACAUUUUCAUUAUUUGUACUUCUCGGUAGAUUUUCUCAAGGUUCACUGCAUCCAGCUGAGACUUAUCGAUUAUUUUUAUUGCCAACAGAGGAUUGAGCAUCA"}, "B10": {"name": "122831585_122840759_262_3pUTR_ENSG00000125676_ENST00000245838|human|control|control (ssRNA)", "RNA": "GGGAGUUCUACAGUCCGACGAUCCAAUUUGUCUCAAUGUCUAAUAUGCAGAAUACAUCAGCAAGAAUGGAGGGCAUAUCCUCACGAAAUUCACUAAUGUCACUAAGAACAUUAGAUGCCUGUUCAUGCUUUAGAUUUCCUUUACAACAGAGGAUUGAGCAUCA"}, "B11": {"name": "chr16:94664741:94664742:+_ENSMUSG00000040785_ENSMUST00000117648|mus_hu|mus_mus_mus_hu_False|78_78 (ssRNA)", "RNA": "GGGAGUUCUACAGUCCGACGAUCUGGUACUGAUCUUGGUAGCUGAUAUUCAGGAGAAAUGUUGGCCAAGGGUGUAUAUAUGCUGGUGUACUGGGGCAAACCUGGUAACACGUUUAUGUAUGCUGGCGGUGUCUGGGUGAUAUCCAACAGAGGAUUGAGCAUCA"}, "B12": {"name": "chr13:98020659:98020660:+_ENSMUSG00000041773_ENSMUST00000041623|mus_hu|motif|central (ssRNA)", "RNA": "GGGAGUUCUACAGUCCGACGAUCACAAUUACAAGACAAGGACUAGAUCACAGGUUUGUUCAUUCAUAUUUAAACCAUGUGCGGCUUGCACCAAAAAUCCCACCCCCCUCCCUCGCCCCUUUCCUUCAUGUCCAGUUAGAGCAUCAACAGAGGAUUGAGCAUCA"}, "B13": {"name": "chr5:145543945:145543946:-_ENSG00000133706_ENST00000545646|hu_hu|hu_hu_hu_mus_True|1_48 (ssRNA)", "RNA": "GGGAGUUCUACAGUCCGACGAUCCUGAACGGCCAGUGGUGGGAAAUAAUCAAGCCAGUGCUCUGCUUCAGAAAACUUCACUAUGUCUUCAUCAGACAGCCCAAGGGAUUUCAUAAUGUCCCACUGGUACUUAGAAGAUCCAGCCAACAGAGGAUUGAGCAUCA"}, "B14": {"name": "chr18:52893488:52893489:-_ENSG00000196628_ENST00000354452|hu_hu|hu_hu_hu_mus_True|38_38 (ssRNA)", "RNA": "GGGAGUUCUACAGUCCGACGAUCUAUUUAGACCAUUUCCGCGGAGUUAUGGCAUUUACUCAGUGCUGAUAGGUGGAAAAACUACUUCAACAGGGAUUUUUUUUUUUCUUAAUACAUGCCAAGAUUGUGUGGCUGUCAAAACAGCAACAGAGGAUUGAGCAUCA"}, "B15": {"name": "chrX:71549762:71549763:+_ENSMUSG00000019087_ENSMUST00000019231|mus_mus|mus_mus_mus_hu_False|1_58 (ssRNA)", "RNA": "GGGAGUUCUACAGUCCGACGAUCAAACCCGUGUACUUCUUAUUGUUAGCACAACAUCACCAGAAAACGAUAACGACAGCUAAGCUGGACAGACAGUUAAGUAGUACUUCCACACUCCCAAACUCAGGGAGCCCUAUAGUUCAUCAACAGAGGAUUGAGCAUCA"}, "B16": {"name": "29164335_29165192_1745_CDS_ENSG00000163811_ENST00000407426|human|control|control (ssRNA)", "RNA": "GGGAGUUCUACAGUCCGACGAUCCUCUGAUGCUGUUACUUGUGUAAUUAGAAGAAUAAGCUUUCCAUGAAGGUGUGAAAGUUUCUGAAAAGUUUUGACUCUGCUUUCCAUUAACUGGUAGAGUGUCCCCAGCUGGGGUACCAGCAACAGAGGAUUGAGCAUCA"}, "B17": {"name": "59845268_59847144_1439_CDS_ENSMUSG00000035469_ENSMUST00000043227|mouse|control|control (ssRNA)", "RNA": "GGGAGUUCUACAGUCCGACGAUCACUAUCAAAUUCUUUCUUCAGUGACUCUGCAACUGUUAAAAAGUCUUCAUGCUCUACAGACAGGAGGCGCCAUGAGACAGCCGGGGUGCCAAAGCAGGCAAACACGUCAUCGGUGCAGCACAACAGAGGAUUGAGCAUCA"}, "B18": {"name": "chr1:58468927:58468928:-_ENSMUSG00000026034_ENSMUST00000148330|mus_mus|mus_mus_mus_hu_False|28_88 (ssRNA)", "RNA": "GGGAGUUCUACAGUCCGACGAUCAAUUACUGAAAAAGAUGUUCAUUUAUUUGGUUUUGUACUUAAUGAACCAAAUUACCCAAACAAAAUAAACAUGGCAAUAUAAAAAGCUAUACAAUUUACAAAGCUGUACAAAAUAACUUACAACAGAGGAUUGAGCAUCA"}, "B19": {"name": "chr4:124323795:124323796:+_ENSG00000164056_ENST00000339241|hu_mus|FALSE|FALSE (ssRNA)", "RNA": "GGGAGUUCUACAGUCCGACGAUCCCACUCCUAUUGAGGCCCAUCCAAGGCAGGAGAGACUCGAGAAGAAAAUCUGCCUCUAAUACCAACAGCCAAAGUUUGGAAGCUAGACAUUCCGCGGAGGUCCAACCCACCUCCAGAAGUCAACAGAGGAUUGAGCAUCA"}, "B20": {"name": "chr18:45374997:45374998:-_ENSG00000175387_ENST00000586040|hu_hu|FALSE|FALSE (ssRNA)", "RNA": "GGGAGUUCUACAGUCCGACGAUCUGAGGGCUGUGAUGCAUGGAAGGUUUCUCCAACCCUCUGAUUUAAUUCAUAAUAUGCUAUCGAACACCAAAAUGCAGGUUCUGAGUAAGUAACUGGCUGUAAAUCCAAGCUAUGAUUAACCAACAGAGGAUUGAGCAUCA"}, "B21": {"name": "chr1:68170538:68170539:-_ENSG00000172380_ENST00000370982|hu_hu|motif|central (ssRNA)", "RNA": "GGGAGUUCUACAGUCCGACGAUCUUAGGAUACUCUUUACUUUUUGUACAAUAACGAUAUGAAAGGAAUUUUUUAUUCGGCCGGUACACAGCUCAAAAUAAAGGUAUAACUUCUGGAACUGAGAAACUGAUGGUAUGGAGAGAGCAACAGAGGAUUGAGCAUCA"}, "B22": {"name": "chr13:100201707:100201708:-_ENSMUSG00000052727_ENSMUST00000064762|mus_mus|motif|central (ssRNA)", "RNA": "GGGAGUUCUACAGUCCGACGAUCACUGACGUCUAUUUGUGUUGGAGAUACAUCUCCUCCCAAUUUCCUUUCAUCCAAAGCGGGAGCUGAUUGAGAACUCAUGGUUUCAACAUCACUGGUUUUCUUUUCUGGACCAAAGUCUUCCAACAGAGGAUUGAGCAUCA"}},
  "note": "Some of the results follow.",
  "data": [
    {"target": "T1, UNK ZnF1-3 (human, UniProt Q9C0B0 31-174)", "T1 sequence": "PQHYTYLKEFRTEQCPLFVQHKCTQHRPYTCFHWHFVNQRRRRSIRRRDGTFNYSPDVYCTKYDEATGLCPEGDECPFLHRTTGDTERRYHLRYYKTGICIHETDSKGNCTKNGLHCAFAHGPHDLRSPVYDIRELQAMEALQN", "assay": "nsRBNS (natural sequence RNA bind-n-seq); RBNS binding buffer (assumed for nsRBNS): 25 mM Tris pH 7.5, 150 mM KCl, 3 mM MgCl2, 0.01% Triton X-100, 500 ug/ml BSA, 20 U/ml SUPERase-In, 4 C; UNK is unkempt and MSI1 is Musashi-1; names of the RNAs are library labels; protein concentration not given here; high values mean tight binding", "units": {"binding signal": "enrichment R"}, "values": [
      {"binder": "B1", "binding signal": 0.972},
      {"binder": "B2", "binding signal": 0.421},
      {"binder": "B3", "binding signal": 0.914},
      {"binder": "B4", "binding signal": 1.58},
      {"binder": "B5", "binding signal": 1.68},
      {"binder": "B6", "binding signal": 1.02},
      {"binder": "B7", "binding signal": 0.709},
      {"binder": "B8", "binding signal": 1.3},
      {"binder": "B9", "binding signal": 0.869},
      {"binder": "B10", "binding signal": 0.826},
      {"binder": "B11", "binding signal": 0.946},
      {"binder": "B12", "binding signal": 1.12},
      {"binder": "B13", "binding signal": 1.3},
      {"binder": "B14", "binding signal": 1.16},
      {"binder": "B15", "binding signal": 1.18},
      {"binder": "B16", "binding signal": 0.926},
      {"binder": "B17", "binding signal": 1.44},
      {"binder": "B18", "binding signal": 0.432},
      {"binder": "B19", "binding signal": 1.34},
      {"binder": "B20", "binding signal": 1.11},
      {"binder": "B21", "binding signal": 1.29},
      {"binder": "B22", "binding signal": 0.376}
    ]}
  ]
}
